This is one part of the list. At the low end of the ranking the order means little.
Molecular target: T1, GST-Rok (full length) (UniProt O34857)
T1 sequence: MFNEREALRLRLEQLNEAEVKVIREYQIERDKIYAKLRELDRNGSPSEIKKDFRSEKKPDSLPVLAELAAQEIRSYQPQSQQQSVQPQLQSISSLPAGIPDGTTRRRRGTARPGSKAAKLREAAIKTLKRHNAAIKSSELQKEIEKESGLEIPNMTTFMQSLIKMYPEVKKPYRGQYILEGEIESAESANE
Assay: protein binding microarray;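 also: rank score from −0.5 (least bound) to 0.5 (best bound)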
Details: Rok is a gene silencer of Bacillus subtilis; high values mean tight binding; most listed sequences are background and not binding sites; double strand, one strand shown

Sequence | binding signal [E-score]
CGGTATGA | 0.0833
TATACACA | 0.2
GCTAGTAA | 0.294
CTTTCAAC | -0.0275
AAATCATC | 0.0641
CCCAGCTC | -0.326
CCGCTTCG | -0.16
TCTCGCAA | -0.122
TAATCATA | 0.158
TGTTGCAA | 0.238
CCGGCATA | -0.142
CGTGTCAG | -0.313
AATTCTGT | 0.206
GTGGGAAC | -0.105
ATACGCGG | 0.0392
AACGACGA | 0.183
ATACACTA | 0.303
CGCAAGTA | 0.111
ATTCTCGG | 0.0396
AGGCTACT | 0.0884
GATTGGCC | -0.113
ATGGGGGA | -0.306
CGGGCCGC | -0.361
GGCGGGTA | -0.394
AACTTAAA | -0.0208

Sequence | binding signal [E-score]
CGCCTACA | -0.0321
ACGTAAAT | 0.323
AGGATACA | 0.105
AGAATGTG | 0.117
AAACTAAT | 0.332
ATTGGGTC | -0.215
GTACAGGA | 0.0953
CTATTGCC | -0.0546
AGCAAGTA | 0.141
TAGTATAA | 0.404
GCGTGAAA | -0.0739
GGCGCGGA | -0.296
GCTTATGA | -0.198
GCATCACA | 0.106
CGTCTGAG | -0.283
CGAGGACG | -0.293
TCGTCTCA | -0.0794
TACACGCA | 0.184
GAAAAGGC | -0.21
AACCGCTC | -0.259
CACGATAA | 0.0955
CACTGAAC | -0.0415
CCATCTTA | -0.0399
AAAATCAC | 0.0989
CGATTATC | 0.0989

Sequence | binding signal [E-score]
AAGGTCGA | 0.128
GCGTTGAC | -0.111
AGCGCCAC | -0.234
CAGTCGGC | -0.129
CCGGGAGC | -0.319
CCGGGTGA | -0.144
AAAACTCT | 0.171
TCTTTTAA | 0.0192
CACCACAG | -0.0169
ACATGTTC | 0.192
CATTCGAC | -0.0252
ACGGATTA | -0.0254
ACCTCAGT | -0.0504
ACGACGGC | -0.23
GGCACCAC | -0.0944
GTCTGAAA | 0.0376
AATCCAAT | 0.104
GCAATAAA | 0.143
AGACGGCC | -0.0687
GACCGTAC | 0.126
CTAGTGAC | 0.0381
ATGGCAGG | -0.18
AGCGGGAC | -0.3
AAGGCGAT | -0.125
AGGGGACT | -0.307

Sequence | binding signal [E-score]
CATTCTTA | 0.155
CTTTTCTA | 0.219
GCACTCAA | -0.134
AACATCGG | -0.0495
ATCTCCTA | 0.104
AGGTGTAC | 0.0376
AGGTCTGA | -0.175
ACCAGTTC | -0.0883
GCCAAGCC | -0.104
CGTGCACA | 0.0495
GTCTCGTA | 0.0282
CTCCTTGA | -0.123
CGACTGCA | -0.147
GAACTAGA | 0.36
AAATGCAT | 0.178
ATGTCATG | 0.0366
GCACATCC | -0.057
CGTGGTAC | 0.0445
AGTAAAAA | 0.29
ACGTCATC | -0.0835
CACAAATA | 0.35
GATATTTA | 0.351
ATGTAGAG | 0.199
CCCAGCTA | 0.0531
TATTTAGA | 0.138

Sequence | binding signal [E-score]
ATAGAATC | 0.254
ATGGCGAA | 0.105
CGCCCTAG | -0.229
ACTCTCCT | 0.00831
ACCACATC | -0.0356
AAACCCGG | -0.0892
CTGTCAAA | -0.00642
ATTCGTCA | 0.141
AAAGACCC | -0.113
GATGCGCC | -0.207
CCTAGTCA | -0.164
ATCTTTTG | -0.0831
ACCTGACT | -0.18
ATGGACAA | -0.0253
ACACGTCT | -0.101
CGACCTAC | -0.115
GAGATGAC | -0.0605
AGAGAATA | 0.0988
GCACCCTA | 0.00434
CCACTACG | -0.00677
CTTTTCCC | -0.247
ACACCTTG | -0.19
AAACCTGC | -0.197
CCAGCGTC | -0.23
ATAATGAA | 0.193

Sequence | binding signal [E-score]
CAAGTTGA | -0.087
ATAGGTGG | 0.0151
CCGCTCTA | -0.0889
CGAGACGC | -0.297
AAATAATT | 0.312
ATCGGGTG | -0.102
CCTCCGAA | -0.131
CAGCACGG | -0.2
TGTATCAA | 0.253
AGCCGGGG | -0.231
CTATCCTC | 0.0731
GACGGTTA | 0.0128
CCGAGGGC | -0.416
AAGGATAG | 0.115
GACGCTAA | 0.0755
CCCGTTAA | -0.0855
CGTTGGCC | -0.219
AGCAAGCT | -0.126
ATAACACA | 0.165
CAGTATCC | -0.126
AGCAGAAC | 0.0117
AGTCGAGG | -0.0571
AGGAGCAA | -0.16
CGCTCATA | 0.0172
AAGTAGAA | 0.305

Sequence | binding signal [E-score]
GAACAGCC | -0.152
GAGAGATA | 0.0854
ACCATCAG | 0.0145
AGCCTGTC | -0.125
CGAGGTCA | -0.271
CATTCCCC | -0.366
CATTTTCC | -0.0597
CAATGTAA | 0.0505
CATTTTGG | -0.0155
CCCGTATA | 0.055
GTTATCTA | 0.285
AATCTACT | 0.432
GCAGACGA | -0.159
CAAAAATC | 0.00179
CTAAAAGA | 0.217
TAAACGCA | -0.0851
ACAAATTA | 0.338
AAAAGTAA | 0.104
CGACACCA | 0.106
AGTTTTCC | 0.109
CATTGTAC | 0.175
AGGTCCCG | -0.184
AGGCTAAC | 0.0196
AATAGCGT | 0.0506
ACGACTTC | 0.0651

Sequence | binding signal [E-score]
CTCTGGTC | -0.00712
AGTGCATA | 0.021
ACCATCTG | 0.19
ACCATAAC | 0.158
CTAAAAAA | 0.00115
GTGGCGCA | -0.303
CCGGATTA | 0.061
AATACTGA | 0.188
CTTCAGAA | -0.0131
GCGTGCCC | -0.358
CGATTTAG | 0.109
GACGCCAC | -0.163
CTCGCCAG | -0.0875
ATATTATG | 0.111
GTACCCAA | 0.0522
ATGTATAG | 0.244
ACTTCATG | 0.0707
GAATCGTA | 0.192
ACGACGTC | -0.00233
CCACTAGA | 0.151
ATCTTGTA | 0.251
AACGGCGT | -0.0861
ACAAACGC | -0.21
ATGACGCA | 0.00313
CAGCCTCA | -0.155

Sequence | binding signal [E-score]
TACCTGCA | 0.000163
AAAGCCTG | -0.18
GGCGATAA | 0.098
GGCACTAA | 0.0305
ATAGTAAT | 0.392
GAACCTGC | -0.337
CCCGTTCC | -0.151
ACCATGTC | -0.0499
CCCTCTAC | -0.341
AACGGGTC | -0.157
ACATTACG | 0.191
AACCCAAC | 0.212
GACAACCA | -0.0247
GAGTTACC | 0.208
GTCCAATA | -0.047
AGGGCGTA | -0.327
GTGGGTAA | 0.142
TATTGTGA | 0.188
ACCGAGAG | 0.0653
